Among all 350,000 compounds or so, about 9,900 (2.8%) were called active. The shares of active, inactive and inconclusive entries below differ from those in the screen. Calls follow the shape of the dose curve; as a rule, active = well fitted activation curve with a large enough effect; inconclusive = small, poorly fitted or top-dose-only effect; inactive = no such curve, though single readings can be large or run the other way. No potency is given beside an inconclusive call; the fits are too rough.
Experiment: A quantitative high throughput screen for small molecules that induce DNA re-replication in MCF 10a normal breast cells. Also: nearly all actives have a fitted effect of over 50% in size. As to activity, positive = re-replication: % of control where 0% means no effect.
Conditions: MCF 10A DNA re-replication, Hoechst nuclear intensity, 48 h; activity, positive = re-replication: at 46.1 µM (top of the series)
Potency is read from the fitted curve at half-maximal effect; tags tell the direction and shape of the fitted curve.

SMILES | Potency | activity, positive = re-replication
CC1=Nc2ccccc2/C1=C/c1c(C)[nH]c2ccccc12 | active: 0.82 µM | 
CCOC(=O)c1ccc(NC(=O)N2CCN(c3cccc(OC)c3)CC2)cc1 |  | inactive: 2.83%
CC(C)CC(C(=O)Nc1ccc2c(c1)OCCO2)N1C(=O)c2ccccc2C1=O (stereo not given) | inconclusive [activator, partial curve, poor fit] | 
O=C1/C(=C\c2ccc(O)cc2)SC(=S)N1/N=C/c1ccc(O)cc1 | inconclusive [activator, single point] | 
O=C(CSc1nnnn1C1CCCC1)Nc1ccccc1N1CCOCC1 | inconclusive [activator, single point] | 
CC(C)=C1SC(N2CCN(c3ccc(C)cc3)CC2)=NC1=O |  | inactive: 0.108%
Cc1ccc(C)n1-c1ccc(C(=O)NC2CCN(Cc3ccccc3)CC2)cc1 | inconclusive [activator, single point] | 
COc1cc([N+](=O)[O-])cc(/C=N/N(CCC#N)C(C)=O)c1O | inconclusive [activator, full curve] | 
Cc1ccc(SCC(=O)NC(=O)c2ccc(S(=O)(=O)N(C)C)cc2)cc1C |  | inactive: -0.998%
CC[C@]12c3[nH]c4ccccc4c3CCN1C(=O)C(CC(=O)NCC13CC4CC(CC(C4)C1)C3)C[C@@H]2C(=O)N1CCN(C(=O)c2ccco2)CC1 (stereo not given in full) | inconclusive [activator, partial curve, poor fit] | 
CCN(CC(=O)Nc1ccc(OC)cc1)C(=O)Cc1cccs1 | inconclusive [activator, single point] | 
Cc1cccn2c(=O)c3cc(C#N)c(=N)n(CCN4CCOCC4)c3nc12 |  | inactive: -20.9%
Cc1nn2c(nc1=O)NNC2(C)C(C)(C)C (stereo not given) | inconclusive [activator, single point] | 
Cc1cccc(-n2c(CCN3C(=O)c4ccccc4C3=O)nc3ccccc3c2=O)n1 |  | inactive: 1.74%
O=C(Cc1coc2cc(O)ccc12)NNC(=O)c1ccc(Br)s1 | inconclusive [activator, partial curve, poor fit] | 
COC(=O)c1c(C)oc2ccc(NS(=O)(=O)c3cccs3)cc12 | inconclusive [activator, partial curve] | 
Cc1ccc(OCC(=O)Oc2c(C)cccc2C)cc1 |  | inactive: -4.19%
Cc1nn2c(COc3ccc(NC(=O)c4ccccc4Cl)cc3)nnc2c2ccccc12 | active: 2.91 µM | 
CC(C)c1ccc(/C=C/c2[nH]c(=O)[nH]c(=O)c2[N+](=O)[O-])cc1 | active: 18.4 µM | 
O=C(Nc1ccc(-c2cc3ccccc3oc2=O)c(Cl)c1)c1cccnc1 | inconclusive [activator, single point] | 
CC(=O)Oc1c(C)c(=O)n(C)c2ccccc12 | inconclusive [activator, partial curve, poor fit] | 
CNCc1ccccc1Sc1ccc(OC)cc1 | inconclusive [activator, partial curve, poor fit] | 
Cc1ccc(NC(=O)CSc2nc3ncc(Br)cc3[nH]2)cc1C | inconclusive [activator, single point] | 

SMILES | Potency | activity, positive = re-replication
Cc1cccc(NC(=S)NC2CCCCCC2)c1C |  | inactive: 11%
COc1ccc(/C=C(\C#N)c2c[nH]c3ccccc23)cc1 | active: 13 µM | 
CCCCC(c1nnnn1Cc1ccco1)N1CCN(C(=O)c2ccco2)CC1 (stereo not given) | inconclusive [activator, partial curve, poor fit] | 
CC(=C/c1ccco1)/C=N/NC(=O)c1ccncc1 | inconclusive [activator, single point] | 
COc1ccccc1C(=O)NCC(=O)NNC(=O)C1COc2ccccc2O1 (stereo not given) |  | inactive: -1.11%
O=C(CCC(=O)Nc1cc(C(F)(F)F)ccc1Cl)N/N=C\c1cc([N+](=O)[O-])ccc1O | inconclusive [activator, full curve, poor fit] | 
Cc1ccc(/C=N/NC(=O)CCn2nc(C)cc2C)c(C)c1 | inconclusive [activator, single point] | 
O=C(NCCN1Cc2ccccc2C1=O)c1cccs1 |  | inactive: -3.12%
CS(=O)(=O)N(Cc1ccc(Cl)cc1)c1ccc(C(=O)NCCC2=CCCCC2)cc1 | inconclusive [activator, partial curve, poor fit] | 
CCN1CCCC1CNC(=O)c1cc(COc2ccc(C)c(C)c2)on1 (stereo not given) | inconclusive [activator, partial curve] | 
Cc1cc(C)c(S(=O)(=O)c2ccccc2C)c(SCC(C)C)n1 | inconclusive [activator, single point] | 
O=C(Nc1cccc2cccnc12)c1cccc2ccccc12 | inconclusive [activator, partial curve, poor fit] | 
Cc1nn(CC(=O)NCc2ccco2)c(C)c1[N+](=O)[O-] | inconclusive [activator, single point] | 
Cc1ccc(OCc2nnc(SCC(=O)c3cccc([N+](=O)[O-])c3)n2C)cc1 | inconclusive [activator, single point] | 
CC(=O)Nc1ccc(NC2=Nc3ccccc3N3C2=Nc2c(c(C)nn2-c2ccccc2)C3c2ccccc2)cc1 (stereo not given) | inconclusive [activator, full curve, poor fit] | 
c1ccc(Cn2ncc3c(N4CCCCC4)ncnc32)cc1 |  | inactive: 26.1%
CCc1ccc(C(=O)COC(=O)c2cc([N+](=O)[O-])ccc2NCCO)cc1 |  | inactive: 12.2%
Cc1ccc(-c2nn3c(C)nnc3c3ccccc23)cc1S(=O)(=O)N(C)CCO | inconclusive [activator, single point] | 
CC(C)NC(=S)N/N=C1\CCCCC1C1CCCCC1 (stereo not given) | active: 18.4 µM | 
CCNS(=O)(=O)c1ccc(NC(=S)NCC2CCCO2)cc1 (stereo not given) | inconclusive [activator, full curve, poor fit] | 
COc1ccc(OC)c(/C=C/C(=O)N(C)CC(=O)Nc2cc(C)ccc2C)c1 |  | inactive: -25.9%
O=C(Nc1ccc(N2C(=O)CCC2=O)cc1Cl)c1cccs1 |  | inactive: 21.3%

— PubChem BioAssay AID624296 (National Center for Advancing Translational Sciences (NCATS), 2012)
